Test results as given in the supplement of paper PMC7826260.
The other results are listed elsewhere or left out. Viral Rep nickase domains cut single-stranded DNA in vitro (3 µM enzyme, 1 h, 37 °C); shown is the middle of each 90-letter strand. A value is the log2 ratio of uncut reads to the pool without enzyme; more negative means more cut, near 0 not cut, and no call is made. Shares of all reads are compared; where an enzyme cuts many sequences, the uncut ones exceed 0.

What follows are sequences tested on T1, Rep nickase domain of tomato golden mosaic virus (assay: uncleaved DNA left, log2 of reads against the no-enzyme library (log2 ratio); higher = less cleavage (more negative = more Rep cleavage of the k-mer); sequences stand for … in CTCGTCCG…ACCGGAGA).
T1 sequence (residues 1-124, tag not shown): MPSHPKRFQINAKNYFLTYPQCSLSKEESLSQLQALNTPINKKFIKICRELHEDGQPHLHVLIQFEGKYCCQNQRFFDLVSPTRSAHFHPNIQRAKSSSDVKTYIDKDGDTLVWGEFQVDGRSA
Protocol: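 A pool of 90-nt single-stranded DNAs with seven random bases just before the constant AC of the nick site (name = the seven bases) was cut by 3 µM recombinant His6-SUMO-tagged Rep nickase domain (300 nM DNA, 50 mM HEPES pH 8.0, 50 mM NaCl, 1 mM MnCl2, 1 h, 37 °C, three replicates). Uncut DNA was amplified and sequenced.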

Question: How did the “uncleaved DNA left (log2)” value turn out when GTGTTCA was run?
Answer: Its value is 0.0548.

Question: How did the “uncleaved DNA left (log2)” value turn out when CATAGTT was run?
Answer: The value was -0.0477.

Question: GGAAAAA was tested. Which “uncleaved DNA left (log2)” value did it give?
Answer: Its value is 0.126.

Question: For GAAACTA, which “uncleaved DNA left (log2)” value is on record?
Answer: The value was 0.0462.

Question: Which “uncleaved DNA left (log2)” value does the source give for TGAGCCA here?
Answer: Its value is 0.0889.

Question: How did the “uncleaved DNA left (log2)” value turn out when AGACGTG was run?
Answer: The value was -0.0691.

Question: For CAAATCT, which “uncleaved DNA left (log2)” value is on record?
Answer: Its value is -0.86.

Question: With CTATCCG as the sequence, how does the “uncleaved DNA left (log2)” value read?
Answer: The value was -0.081.

Question: For CTATCGC, which “uncleaved DNA left (log2)” value is on record?
Answer: The value was -0.153.

Question: With ACGAACC as the sequence, how does the “uncleaved DNA left (log2)” value read?
Answer: The value was 0.0592.

Question: Which “uncleaved DNA left (log2)” value does the source give for ATCTCGA here?
Answer: Its value is 0.0588.

Question: How did the “uncleaved DNA left (log2)” value turn out when GAAATCA was run?
Answer: Its value is 0.045.

Question: Which “uncleaved DNA left (log2)” value does the source give for TCTATGG here?
Answer: Its value is 0.219.

Question: How did the “uncleaved DNA left (log2)” value turn out when AACCTAA was run?
Answer: The value was 0.0826.

Question: For TTAAGGT, which “uncleaved DNA left (log2)” value is on record?
Answer: The value was 0.0635.

Question: For TCCAATG, which “uncleaved DNA left (log2)” value is on record?
Answer: The value was -0.0275.

Question: Which “uncleaved DNA left (log2)” value does the source give for AGAGGCA here?
Answer: The value was 0.0368.

Question: How did the “uncleaved DNA left (log2)” value turn out when TGCTTTT was run?
Answer: Its value is -0.123.

Question: How did the “uncleaved DNA left (log2)” value turn out when TGACCTT was run?
Answer: Its value is 0.0415.

Question: For CCCTCTA, which “uncleaved DNA left (log2)” value is on record?
Answer: Its value is -0.0248.

Question: AGTGATG was tested. Which “uncleaved DNA left (log2)” value did it give?
Answer: Its value is 0.009.

Question: For CGGCCGC, which “uncleaved DNA left (log2)” value is on record?
Answer: The value was 0.000633.

Question: For TAGGCTG, which “uncleaved DNA left (log2)” value is on record?
Answer: The value was 0.111.

Question: TGAGCAT was tested. Which “uncleaved DNA left (log2)” value did it give?
Answer: The value was -0.0294.

Question: Which “uncleaved DNA left (log2)” value does the source give for TCACAAA here?
Answer: The value was 0.143.

Question: AAGATAA was tested. Which “uncleaved DNA left (log2)” value did it give?
Answer: Its value is 0.126.

Question: How did the “uncleaved DNA left (log2)” value turn out when CGTGCCA was run?
Answer: Its value is 0.019.

Question: How did the “uncleaved DNA left (log2)” value turn out when CACTGGC was run?
Answer: Its value is 0.0251.

Question: With CAAGCAC as the sequence, how does the “uncleaved DNA left (log2)” value read?
Answer: The value was -0.0842.

Question: AATTAGT was tested. Which “uncleaved DNA left (log2)” value did it give?
Answer: Its value is -0.258.

Question: For GCTGCCC, which “uncleaved DNA left (log2)” value is on record?
Answer: The value was 0.00594.

Question: Which “uncleaved DNA left (log2)” value does the source give for TCTTCAG here?
Answer: The value was 0.0742.

Question: GCTTTGG was tested. Which “uncleaved DNA left (log2)” value did it give?
Answer: The value was 0.0714.

Question: Which “uncleaved DNA left (log2)” value does the source give for TGCACGG here?
Answer: Its value is 0.0441.

Question: With AGAGCAC as the sequence, how does the “uncleaved DNA left (log2)” value read?
Answer: The value was 0.0584.

Question: How did the “uncleaved DNA left (log2)” value turn out when GACAAGG was run?
Answer: The value was 0.223.

Question: With AACATTT as the sequence, how does the “uncleaved DNA left (log2)” value read?
Answer: Its value is -0.158.

Question: How did the “uncleaved DNA left (log2)” value turn out when CCGTTCA was run?
Answer: Its value is -0.141.

Question: GACGGCT was tested. Which “uncleaved DNA left (log2)” value did it give?
Answer: The value was -0.103.

Question: For TCGAGGA, which “uncleaved DNA left (log2)” value is on record?
Answer: Its value is -0.122.
